Measurements from doi:10.1101/524025v1.

Assays:
[1] = substrate: CC(C)(COP(=O)(O)OP(=O)(O)OC[C@H]1O[C@@H](n2cnc3c(N)ncnc32)[C@H](O)[C@@H]1OP(=O)(O)O)[C@@H](O)C(=O)NCCC(=O)NCCSC(=O)c1ccccc1; assay: purified protein, by the assay type
[2] = substrate: CCCCCCCCCCCC(=O)SCCNC(=O)CCNC(=O)[C@H](O)C(C)(C)COP(=O)(O)OP(=O)(O)OC[C@H]1O[C@@H](n2cnc3c(N)ncnc32)[C@H](O)[C@@H]1OP(=O)(O)O; assay: purified protein, by the assay type
[3] = substrate: CCCCC/C=C\C/C=C\C/C=C\C/C=C\CCCC(=O)SCCNC(=O)CCNC(=O)[C@H](O)C(C)(C)COP(=O)(O)OP(=O)(O)OC[C@H]1O[C@@H](n2cnc3c(N)ncnc32)[C@H](O)[C@@H]1OP(=O)(O)O; assay: purified protein, by the assay type
[4] = substrate: CC(C)CC(=O)SCCNC(=O)CCNC(=O)[C@H](O)C(C)(C)COP(=O)(O)OP(=O)(O)OC[C@H]1O[C@@H](n2cnc3c(N)ncnc32)[C@H](O)[C@@H]1OP(=O)(O)O; assay: purified protein, by the assay type
[5] = substrate: CCC(=O)SCCNC(=O)CCNC(=O)[C@H](O)C(C)(C)COP(=O)(O)OP(=O)(O)OC[C@H]1O[C@@H](n2cnc3c(N)ncnc32)[C@H](O)[C@@H]1OP(=O)(O)O; assay: purified protein, by the assay type
[6] = substrate: CC(C)C(=O)SCCNC(=O)CCNC(=O)[C@H](O)C(C)(C)COP(=O)(O)OP(=O)(O)OC[C@H]1O[C@@H](n2cnc3c(N)ncnc32)[C@H](O)[C@@H]1OP(=O)(O)O; assay: purified protein, by the assay type
[7] = substrate: CCCCCCCCCCCCCCCC(=O)SCCNC(=O)CCNC(=O)[C@H](O)C(C)(C)COP(=O)(O)OP(=O)(O)OC[C@H]1O[C@@H](n2cnc3c(N)ncnc32)[C@H](O)[C@@H]1OP(=O)(O)O; assay: purified protein, by the assay type
[8] = substrate: CCCCCCCCCC(=O)Nc1ncnc2c1ncn2[C@@H]1O[C@H](COP(=O)(O)OP(=O)(O)OCC(C)(C)[C@@H](O)C(=O)NCCC(=O)NCCS)[C@@H](OP(=O)(O)O)[C@H]1O; assay: purified protein, by the assay type
[9] = substrate: CC(=O)SCCNC(=O)CCNC(=O)[C@H](O)C(C)(C)COP(=O)(O)OP(=O)(O)OC[C@H]1O[C@@H](n2cnc3c(N)ncnc32)[C@H](O)[C@@H]1OP(=O)(O)O; assay: purified protein, by the assay type
[10] = substrate: CC(C)(COP(=O)(O)OP(=O)(O)OC[C@H]1O[C@@H](n2cnc3c(N)ncnc32)[C@H](O)[C@@H]1OP(=O)(O)O)[C@@H](O)C(=O)NCCC(=O)NCCSC(=O)CC(=O)O; assay: purified protein, by the assay type
[11] = substrate: C/C(=C\Cc1c(O)c(C)c2c(c1O)C(=O)OC2)CCC(=O)SCCNC(=O)CCNC(=O)[C@H](O)C(C)(C)COP(=O)(O)OP(=O)(O)OC[C@H]1O[C@@H](n2cnc3c(N)ncnc32)[C@H](O)[C@@H]1OP(=O)(O)O; assay: purified protein; conditions: CoA thioester hydrolysis
[12] = substrate: COc1c(C)c2c(c(O)c1C/C=C(\C)CCC(=O)SCCNC(=O)CCNC(=O)[C@H](O)C(C)(C)COP(=O)(O)OP(=O)(O)OC[C@H]1O[C@@H](n3cnc4c(N)ncnc43)[C@H](O)[C@@H]1OP(=O)(O)O)C(=O)OC2; assay: purified protein; conditions: CoA thioester hydrolysis

B1: MpaH’ (Penicillium brevicompactum) (protein)
chain: MSTEKFTITEHLVPGSHIREYPGSTVNQEDVLKIHVKQYTPKREGPVPDDAITFIATHGVGLPKELYEPLWDELLDQASGFHIRAIWMADVASMNQSGIHNEDKLSMDCSWMDHARDLLLMINHFRDQMPRPLVGIGHSFGGNIITNLAYLHPRLFTTLLLLDPLIQLSPPSLGFGTDAPSAINYTLWRDDVWPSREVAIRANRAIMQGMDPRCLDRMTKHFFRDLPTPLYPDVEAIKALFGTTADSTTTPVTLTTPKYHELVAQIRQNFNARDPKTGRIEVPRDTHADMDPLVAYIPLYRPEPRSTFRRLETLRPSCLWVIAGATFLNIDEIREGVKICGSGIGGSGGVPDGRVREVVLPGFGHLMPFQEVKTVAETCIVWLQQEMDRFRQTERQWKEDRDGKSHLAVEENWYKVLKPIPSGRKKRNDKGKL
Km [1]: 217.9 ± 79.63 µM
kcat [1]: 0.0649 ± 0.00513 s⁻¹
kcat/Km [1]: 300 M⁻¹ s⁻¹
Km [2]: 260.2 ± 79.56 µM
kcat [2]: 1.65 ± 0.118 s⁻¹
kcat/Km [2]: 6350 M⁻¹ s⁻¹
Km [3]: 316.6 ± 101.8 µM
kcat [3]: 0.789 ± 0.0645 s⁻¹
kcat/Km [3]: 2500 M⁻¹ s⁻¹
Km [4]: 780.8 ± 372.8 µM
kcat [4]: 0.0953 ± 0.0178 s⁻¹
kcat/Km [4]: 117 M⁻¹ s⁻¹
Km [5]: 351.5 ± 130.9 µM
kcat [5]: 0.41 ± 0.0407 s⁻¹
kcat/Km [5]: 1170 M⁻¹ s⁻¹
Km [6]: 201.9 ± 45.03 µM
kcat [6]: 0.128 ± 0.006 s⁻¹
kcat/Km [6]: 633 M⁻¹ s⁻¹
Km [7]: 577 ± 189.20 µM
kcat [7]: 0.387 ± 0.0429 s⁻¹
kcat/Km [7]: 667 M⁻¹ s⁻¹
Km [8]: 143 ± 52.66 µM
kcat [8]: 2.27 ± 0.155 s⁻¹
kcat/Km [8]: 15900 M⁻¹ s⁻¹
Km [9]: 722.3 ± 213.9 µM
kcat [9]: 0.916 ± 0.102 s⁻¹
kcat/Km [9]: 1270 M⁻¹ s⁻¹
Km [10]: 76.37 ± 52.11 µM
kcat [10]: 0.216 ± 0.0216 s⁻¹
kcat/Km [10]: 2820 M⁻¹ s⁻¹
Km [11]: 382.6 ± 153.4 µM
kcat [11]: 73.97 ± 8.238 s⁻¹
Km [12]: 117.5 ± 32.93 µM
kcat [12]: 159.6 ± 6.487 s⁻¹
